Among all 360,000 compounds or so, about 6,000 (1.7%) were called active. The shares of active, inactive and inconclusive entries below differ from those in the screen. Calls follow the shape of the dose curve; as a rule, active = well fitted cell-killing curve with a large enough effect; inconclusive = small, poorly fitted or top-dose-only effect, or effect the other way; inactive = flat fitted curve, though single readings scatter. No potency is given beside an inconclusive call; the fits are too rough.
experiment: qHTS for induction of synthetic lethality in tumor cells producing 2HG: qHTS for the HT-1080-NT fibrosarcoma cell line; conditions: HT-1080-NT fibrosarcoma viability, CellTiter-Glo ATP luminescence, 48 h; activity, negative = less viability: at 46.1 µM (top of the series) unless noted;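 also: NT is the 2HG producing partner of a matched IDH1 knockdown line; nearly all actives have a fitted effect of over 55% in size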;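 as to activity, negative = less viability: 0% = DMSO-treated cells and -100% = media-only wells without cells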
How it was run: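 A 48-hour cytotoxicity screen used HT-1080-NT cells plated 2 hours before compound delivery. ATP-based CellTiter-Glo luminescence measured viability, normalized to DMSO and no-cell controls.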
Potency is read from the fitted curve at half-maximal effect; tags tell the direction and shape of the fitted curve.

SMILES | Potency | activity, negative = less viability
CC(C)[C@H](NC(=O)OC(C)(C)C)C(=O)N/N=C/c1cccc2nccnc12 | inconclusive [cytotoxic, single point] | –
COc1ccccc1NC(=O)Nc1nc(C(N)Cc2ccc(Cl)cc2)cs1 (configuration not stated) | inconclusive [cytotoxic, single point] | –
Cc1cc(C)cc(NS(=O)(=O)c2cnc(Cl)c(Cl)c2)c1 | inconclusive [cytotoxic, single point] | –
O=C(CCc1ccccc1)Nc1ccncc1 | – | inactive: 3.3%
O=C(CNC(=O)c1ccc(Cl)cc1)OCCCOC(=O)CNC(=O)c1ccc(Cl)cc1 | – | inactive: 8.02%
FC(F)(F)c1nc2nccnc2[nH]1 | inconclusive [rising, single point] | –
O=C(COC(=O)/C=C/c1cccc([N+](=O)[O-])c1)NCc1ccc2c(c1)OCO2 | inconclusive [rising, single point] | –
CCOC(=O)c1sc2nc(C)nc(Nc3ccccc3)c2c1C | inconclusive [rising, single point] | –
Fc1ccc(Cn2c(-c3cscn3)nc3ccccc32)c(Cl)c1 | – | inactive: -5.59%
CC(Oc1ccccc1)C(=O)N1CCN=C1SCc1ccc(F)cc1 (configuration not stated) | – | inactive: 23.8%
Cc1ccc(S(=O)(=O)N2CCN(c3ccnc4cc(Cl)ccc34)CC2)cc1 | inconclusive [cytotoxic, single point] | –
CSc1ccc(CN(C)C(=O)c2cccc(S(=O)(=O)N3CCN(Cc4ccccc4)CC3)c2)cc1 | inconclusive [cytotoxic, single point] | –
CC1CCN(S(=O)(=O)c2ccc(NC(=O)Cc3cccs3)cc2)CC1 | – | inactive: 0.478% [at 9.24 µM]
COc1ccc(C(=O)Nc2ccc(S(=O)(=O)Nc3onc(C)c3C)cc2)c(OC)c1 | – | inactive: 0.0703%
CCOc1ccc(C(=O)NC2CC(=O)N(c3ccc4c(c3)OCCO4)C2)cc1 (configuration not stated) | – | inactive: 5.13%
O=C(O)c1ccc(COc2ccccc2/C=C2\NC(=O)N(Cc3ccccc3F)C2=O)cc1 | inconclusive [cytotoxic, single point] | –
Cn1nccc1C(=O)N1CCc2ccccc21 | – | inactive: -5.86%
COCCNc1nc(N)c([N+](=O)[O-])c(Nc2ccc(F)cc2)n1 | inconclusive [cytotoxic, partial curve] | –
O=[N+]([O-])c1ccccc1/C=C/c1ccc2ccccc2n1 | inconclusive [cytotoxic, single point] | –
CCCN1CNc2c(c(=O)[nH]c(=S)n2CCc2c(Cl)cccc2Cl)C1 | – | inactive: -4.3%
O=C(Nc1ccncc1)C1CCCN(S(=O)(=O)c2cccc3cccnc23)C1 (configuration not stated) | active: 3.26 µM | –
NC(=O)COc1ccc2oc(-c3ccccc3)cc(=O)c2c1 | inconclusive [rising, partial curve] | –
CC1CCCC(C)N1C(=O)COC(=O)c1cc(-c2cccs2)nn1-c1ccccc1 (configuration not stated) | – | inactive: 0.541%
FC(F)(F)c1cccc(-c2cc3nc(NC4CCCCC4)ccn3n2)c1 | inconclusive [cytotoxic, single point] | –

SMILES | Potency | activity, negative = less viability
COC(=O)c1cc(S(=O)(=O)N2CCCCCC2)c[nH]1 | – | inactive: -3.04%
O=C1c2cccc3c([N+](=O)[O-])ccc(c23)C(=O)N1O | inconclusive [cytotoxic, single point] | –
Oc1c(Br)cc(Br)c(/C=N/n2c(-c3ccccc3)n[nH]c2=S)c1Br | inconclusive [cytotoxic, single point] | –
Cc1cc(C)n2nc(C(=O)Nc3ccc4c(c3)OCO4)cc2n1 | – | inactive: 1.83% [at 9.24 µM]
Cc1ccc([C@H]2C[C@H](n3cc(C4CC4)nn3)[C@@H](O)CN2CC2CCCCC2)cc1 | inconclusive [cytotoxic, single point] | –
O=C(c1cccc(S(=O)(=O)NCc2ccccc2)c1)N1CCN(c2ccccc2)CC1 | inconclusive [cytotoxic, single point] | –
COc1ccc(NC(=O)COc2ccc(C)c(C)c2)cc1S(=O)(=O)N1CCCCC1 | inconclusive [cytotoxic, single point] | –
CC(N)c1csc(NC(=O)Nc2cccc(C(F)(F)F)c2)n1 (configuration not stated) | active: 18.4 µM | –
Cc1nnsc1-c1c(C(=O)Oc2ccccc2)c(C)nn1-c1ccccc1 | – | inactive: -0.948%
COCCN1C[C@@H](CO)O[C@@H](n2cnc3c(NCc4ccco4)ncnc32)C1 | inconclusive [rising, single point] | –
CCN(CC(=O)Nc1ccc(NC(C)=O)cc1)C(=O)/C=C/c1cn(-c2ccccc2)nc1-c1ccc(F)cc1 | – | inactive: 3.35%
CCOC(=O)N(C)c1c(CC)nc2c(OCc3ccc(Cl)cc3)cccn12 | inconclusive [cytotoxic, single point] | –
CCOC(=O)C1CCN(C(=O)c2ccc3c(=O)n4nc(Nc5ccccc5CC)sc4nc3c2)CC1 | inconclusive [cytotoxic, single point] | –
CC(=O)CCc1ccccc1 | – | inactive: -0.176%
O=C(Nc1cccc(C(F)(F)F)c1)c1ccc2sc([C@H]3C[C@H](O)[C@@H](CO)O3)nc2c1 | inconclusive [cytotoxic, partial curve] | –
Cn1sc(=O)c2cc(S(=O)(=O)NC3CC3)ccc21 | inconclusive [cytotoxic, single point] | –
Cc1ccc2[nH]c(C(=O)N3CCOCC3)cc2c1 | – | inactive: -0.346%
CCOCCN1CCN(C2c3ccccc3CSc3ccccc32)CC1 (configuration not stated) | inconclusive [cytotoxic, single point] | –
CN1CCc2c(sc(NC(=O)c3ccc(S(=O)(=O)N4CCCCCC4)cc3)c2C(N)=O)C1 | active: 23.1 µM | –
COc1ccc(-c2[nH]ncc2-c2cscn2)c(O)c1 | inconclusive [rising, single point] | –
Cc1ccccc1-c1csc(C(O)c2cccc(Cl)c2)n1 (configuration not stated) | inconclusive [cytotoxic, single point] | –
COc1ccc(-c2oc3ccccc3c(=O)c2OC(=O)c2ccc(C)cc2)cc1 | – | inactive: 20%
O=C(COc1ccc(Cl)cc1Cl)Nc1c(-c2cccs2)nc2ccccn12 | inconclusive [cytotoxic, single point] | –
c1ccc(-c2nc(NCc3cccnc3)c3oc4ccccc4c3n2)cc1 | inconclusive [cytotoxic, partial curve] | –

SMILES | Potency | activity, negative = less viability
CC(=O)Nc1ccc(N2CCC(C)CC2)c([N+](=O)[O-])c1 | inconclusive [rising, single point] | –
N#CC1=C(N)C(C#N)(C#N)[C@H](c2c(F)cccc2F)[C@H]2CC3(CC=C12)OCCO3 | inconclusive [cytotoxic, partial curve] | –
O=C1c2cccc3c(O)ccc(c23)C(=O)N1c1ccc(Cl)cc1 | – | inactive: -17%
C/C(=N\Nc1nc(C)c(C)s1)c1ccc([N+](=O)[O-])cc1 | active: 20.6 µM | –
CCC[C@@H](CN[C@@H](CNC)C(C)C)NCCCCc1ccccc1 | inconclusive [cytotoxic, single point] | –
O=C(C[C@@H]1C/C=C/CC[C@H](Cc2ccc(F)cc2)C(=O)OC[C@@H](Cc2ccccc2)NC1=O)N[C@H](CO)Cc1ccccc1 | inconclusive [cytotoxic, single point] | –
O=C(NCc1cccnc1)/C(=C/c1ccc(-c2ccc(Cl)cc2)o1)S(=O)(=O)c1ccccc1 | active: 6.31 µM | –
C=CC[n+]1c(-c2ccc(Cl)cc2Cl)csc1Nc1ccc(NC(C)=O)cc1 | inconclusive [cytotoxic, partial curve, poor fit] | –
O=[N+]([O-])c1c(O)c(Cl)cc(Cl)c1Cl (tested in a mixture with another compound) | – | inconclusive: -32.3% [cytotoxic]
Nc1ccc(C(=O)Nc2ccccc2C(=O)O)cc1 | – | inactive: 3.23%
CC(OC(=O)CSc1ccc([N+](=O)[O-])cc1)C(=O)NCc1ccccc1 (configuration not stated) | inconclusive [cytotoxic, single point] | –
CCOC(=O)c1c(C)oc2ccc(O)c(CN3CCCCC3)c12 | inconclusive [cytotoxic, single point] | –
CN1CCC(NC(=O)Nc2cccc(C(F)(F)F)c2)CC1 | – | inactive: -8.47%
CCCCn1nnnc1C1(C)CCC(=O)N1Cc1cccc(F)c1 (configuration not stated) | – | inactive: 19%
Cc1cccc(N(CC(=O)NC2CCCC2)C(=O)CCC(=O)Nc2cc(C)on2)c1 | – | inactive: -6%
O=C(NCCc1ccccc1)c1ccc(-c2ccccc2C(F)(F)F)o1 | inconclusive [cytotoxic, single point] | –
CCCCCc1c(-c2ccc(Cl)cc2)ncn1CCc1ccccc1OC | inconclusive [cytotoxic, single point] | –
COc1cccc(C(=O)N/N=C(\C)c2ccc(NC(=O)Cc3ccccc3)cc2)c1OC | – | inactive: 12.5%
C[C@@H]1COc2cccc(N3CCC[C@H]3CO)c2S(=O)(=O)N1 | – | inactive: 18.6%
CSC(=NS(=O)(=O)c1ccccc1)NNC(=O)c1c(-c2c(Cl)cccc2Cl)noc1C | – | inactive: 3.59%
O=C(COc1ccc(Br)cc1Br)NC1CCCC1 | inconclusive [cytotoxic, partial curve] | –
COc1ccc(-c2sc3ccccc3c2C#Cc2cncn2C)cc1 | inconclusive [cytotoxic, single point] | –
COc1ccc(NC(=O)CSc2nnc(NC(=O)C3CCC3)s2)c(OC)c1 | – | inactive: 5.5%
COc1ccc(C(=O)N2CCC2(C)C(=O)NC(C)C)c(OC)c1 (configuration not stated) | – | inconclusive: 9.48%
